In the supplement of paper PMC3334620:
Over roughly 33,000 sequences, “E-score (-0.5 to 0.5)” has its median near -0.035; the highest 2% begin near 0.35. Some of the results follow.

What follows are sequences tested against T1, Pdr3 (UniProt P33200) (assay: PBM E-score (8-mer binding enrichment) (E-score (-0.5 to 0.5)); higher = stronger / more preferred TF binding; most listed sequences are background and not binding sites). Conditions: protein concentration: 200 nM; construct: GST-full length.
T1 sequence: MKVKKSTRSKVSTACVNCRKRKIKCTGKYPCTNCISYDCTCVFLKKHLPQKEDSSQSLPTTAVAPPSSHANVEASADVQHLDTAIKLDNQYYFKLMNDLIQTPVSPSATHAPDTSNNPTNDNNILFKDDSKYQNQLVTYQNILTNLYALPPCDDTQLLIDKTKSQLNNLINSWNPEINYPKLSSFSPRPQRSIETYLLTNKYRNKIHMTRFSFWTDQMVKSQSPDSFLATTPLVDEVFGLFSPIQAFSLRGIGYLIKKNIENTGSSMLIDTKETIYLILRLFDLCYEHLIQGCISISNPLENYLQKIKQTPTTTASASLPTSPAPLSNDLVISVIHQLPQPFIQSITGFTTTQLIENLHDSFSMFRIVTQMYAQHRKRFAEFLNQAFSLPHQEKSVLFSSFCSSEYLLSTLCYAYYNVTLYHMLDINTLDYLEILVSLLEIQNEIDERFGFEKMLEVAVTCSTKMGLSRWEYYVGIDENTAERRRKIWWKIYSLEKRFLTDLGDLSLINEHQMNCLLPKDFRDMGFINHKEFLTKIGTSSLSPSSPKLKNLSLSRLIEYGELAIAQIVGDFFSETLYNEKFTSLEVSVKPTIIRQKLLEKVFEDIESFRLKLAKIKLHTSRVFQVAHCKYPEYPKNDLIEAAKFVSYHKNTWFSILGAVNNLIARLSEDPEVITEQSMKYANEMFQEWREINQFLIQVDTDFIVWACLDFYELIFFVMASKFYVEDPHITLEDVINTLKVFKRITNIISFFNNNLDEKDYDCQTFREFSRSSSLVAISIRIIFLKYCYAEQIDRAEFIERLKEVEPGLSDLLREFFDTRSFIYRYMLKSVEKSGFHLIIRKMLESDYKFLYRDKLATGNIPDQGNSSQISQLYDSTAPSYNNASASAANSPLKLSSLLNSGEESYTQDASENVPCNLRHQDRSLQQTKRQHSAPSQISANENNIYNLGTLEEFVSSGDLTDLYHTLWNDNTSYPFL
In short: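 Using PURExpress in vitro transcription/translation, GST-tagged yeast transcription factors were made in full-length or DNA-binding-domain form. These were applied at about 100-200 nM to double-stranded universal all-10-mer Agilent arrays, and bound protein was detected with fluorescent anti-GST. Scans were normalised with masliner before the Universal PBM Analysis Suite assigned E-scores to ungapped eight-base words pooled with their reverse complements.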
CAAACGGA was tested, and the “PBM E-score” value was 0.37.
ACACTGCG was tested, and the “PBM E-score” value was 0.0149.
With CTACCTCC the “PBM E-score” value was 0.0355.
With AAGGAGGG the “PBM E-score” value was -0.0665.
With ATGTGATG the “PBM E-score” value was -0.229.
TCACCGGA was tested, and the “PBM E-score” value was 0.329.
GGAGAAAC was tested, and the “PBM E-score” value was 0.132.
For CGCGGCGC, the “PBM E-score” value was 0.398.
ACATAGAT was tested, and the “PBM E-score” value was -0.085.
In the case of CAAGAGAC, the “PBM E-score” value was -0.28.
With ATCGCTGA the “PBM E-score” value was 0.0401.
For CCCCACAC, the “PBM E-score” value was -0.106.
In the case of CCCCTTTC, the “PBM E-score” value was 0.00738.
TAGCGAAA was tested, and the “PBM E-score” value was -0.0832.
For TAGCTACA, the “PBM E-score” value was -0.047.
For ACAGCTGT, the “PBM E-score” value was -0.0906.
In the case of TCGGCCGA, the “PBM E-score” value was 0.377.
With ATCAAAGC the “PBM E-score” value was 0.0706.
For CGGGAGTA, the “PBM E-score” value was 0.294.
For GCAACAGC, the “PBM E-score” value was -0.0537.
In the case of GGGCCCAC, the “PBM E-score” value was 0.255.
With ACCGCTCA the “PBM E-score” value was 0.00997.
ATTTCGAC was tested, and the “PBM E-score” value was -0.174.
In the case of AATTTGAT, the “PBM E-score” value was 0.0365.
With CGTCGCTC the “PBM E-score” value was 0.0274.
For TTCAGCAA, the “PBM E-score” value was -0.239.
ACAACCGC was tested, and the “PBM E-score” value was 0.202.
TATCGGCA was tested, and the “PBM E-score” value was 0.101.
In the case of CCCCAATC, the “PBM E-score” value was -0.0459.
With ACTCGGAA the “PBM E-score” value was 0.427.
With GGGGTGCA the “PBM E-score” value was 0.233.
With CGACTGCG the “PBM E-score” value was 0.0722.
With ACCATATA the “PBM E-score” value was 0.0167.
With CGGATAAG the “PBM E-score” value was 0.305.
For CGTGGCCC, the “PBM E-score” value was -0.11.
For AATCTCGA, the “PBM E-score” value was 0.0359.
In the case of AAGAGCGA, the “PBM E-score” value was -0.156.
With GAAACTCA the “PBM E-score” value was -0.0846.
In the case of GCAATCCA, the “PBM E-score” value was -0.0294.
GTCATGAC was tested, and the “PBM E-score” value was 0.115.
For ACCAAATG, the “PBM E-score” value was 0.0229.
In the case of CGAAACAA, the “PBM E-score” value was 0.11.
ACCCTAGT was tested, and the “PBM E-score” value was -0.319.
With GAAAGATA the “PBM E-score” value was 0.0374.
With GGTGGCCA the “PBM E-score” value was -0.0261.
With AATCCGAC the “PBM E-score” value was 0.218.
CGTACTAA was tested, and the “PBM E-score” value was 0.0211.
In the case of AGTGGGCG, the “PBM E-score” value was 0.0424.
With CGACTGAA the “PBM E-score” value was 0.0644.
CTGTACTC was tested, and the “PBM E-score” value was -0.245.
For ACCCCCCA, the “PBM E-score” value was -0.252.
For CGCTCCGA, the “PBM E-score” value was 0.318.
For ACAATGGA, the “PBM E-score” value was 0.199.
For ACGCTTCC, the “PBM E-score” value was 0.204.
GACTAAAC was tested, and the “PBM E-score” value was -0.136.
In the case of CAAGCGTG, the “PBM E-score” value was -0.15.
TCTATACA was tested, and the “PBM E-score” value was -0.274.
With AGACTAGG the “PBM E-score” value was -0.3.
With ATCTTAGG the “PBM E-score” value was -0.166.
In the case of AACCTCGT, the “PBM E-score” value was -0.0839.
In the case of CCCACAGA, the “PBM E-score” value was -0.273.
For GTGGTGGA, the “PBM E-score” value was -0.0783.
ATCAGATA was tested, and the “PBM E-score” value was -0.159.
In the case of CGGATAGA, the “PBM E-score” value was 0.311.
CGATTAGA was tested, and the “PBM E-score” value was 0.026.
In the case of GGTACCTA, the “PBM E-score” value was -0.0642.
ACGTTTGA was tested, and the “PBM E-score” value was 0.0578.
In the case of GCCAGAAC, the “PBM E-score” value was -0.074.
With CTTGGCAC the “PBM E-score” value was -0.117.
For CGGGTAGC, the “PBM E-score” value was 0.17.
In the case of ATATAGCC, the “PBM E-score” value was 0.118.
With CTTGGCCA the “PBM E-score” value was -0.0613.
ATCTTCCA was tested, and the “PBM E-score” value was -0.196.
In the case of CGGTTGTC, the “PBM E-score” value was 0.134.
In the case of GCGACTAA, the “PBM E-score” value was 0.0282.
In the case of GCCTGTAA, the “PBM E-score” value was -0.249.
In the case of ATATCTAC, the “PBM E-score” value was 0.0754.
With AGCTCGAC the “PBM E-score” value was -0.055.
In the case of CCCAGGCC, the “PBM E-score” value was -0.116.
In the case of ATTACCTA, the “PBM E-score” value was 0.0728.
In the case of AGTTATAG, the “PBM E-score” value was -0.228.
In the case of GCCCAGCA, the “PBM E-score” value was 0.0207.
In the case of AGTGAGAG, the “PBM E-score” value was -0.178.
For CAGAGACG, the “PBM E-score” value was -0.11.
With AGATAACC the “PBM E-score” value was -0.107.
ACTACCAA was tested, and the “PBM E-score” value was -0.0744.
ACCGCGGA was tested, and the “PBM E-score” value was 0.488.
For AGCTTTAC, the “PBM E-score” value was -0.177.
For AGGAAGAA, the “PBM E-score” value was -0.186.
GAAAGAAC was tested, and the “PBM E-score” value was 0.0631.
In the case of ACGGGGAC, the “PBM E-score” value was 0.268.
CGTTGACA was tested, and the “PBM E-score” value was -0.115.
With GGCCTGGA the “PBM E-score” value was -0.169.
For CACAAGTC, the “PBM E-score” value was -0.233.
